From ChEMBL document CHEMBL4888484, “Replenishing the malaria drug discovery pipeline: Screening and hit evaluation of the MMV Hit Generation Library 1 (HGL1) against asexual blood stage Plasmodium falciparum ,using a nano luciferase reporter read-out” (2022)
About 540 (0.36%) of roughly 150,000 compounds showed an effect of 50% or more. Some of the results follow.

Tested on: Plasmodium falciparum
Experiment: Primary screen in NF54 nanoGlo assay, in single point, at 2uM, 72h; a lower Z score goes with more inhibition
Type: functional, Erythrocyte
Conditions: timepoint 72 hour

Row | Compound | % Inhibition | Z score
1 | C=CC[C@]1(C(=O)O)CCCN(c2ccncc2)C1 | -2% | 0.41
2 | O=C(O)c1ccc(COc2ccc(CN3CC[C@H]3c3ccccc3)cc2)o1 | -12% | 2.34
3 | CN(C(=O)C[C@]1(c2ccc(-c3ccccc3)cc2)CC(=O)N(C2CC2)C1=O)C1CCOCC1 | 19% | -2.56
4 | CN1CCC(N(C)C(=O)CC[C@H]2CCCN(Cc3ccc4c(c3)OCCO4)C2)CC1 | -1% | 0.11
5 | CN(C)S(=O)(=O)N[C@H]1CCN(C(=O)c2coc3ccccc23)C[C@@H]1O | -3% | 0.65
6 | CC(C)Cc1nc(CN2CCC[C@H]2c2cnn(C)c2)no1 | -6% | 0.79
7 | Cn1cccc1CNc1nnc(C(C)(C)C)o1 | -12% | 1.38
8 | CCOC(=O)N1CCC(N2Cc3cccc(C(=O)Nc4cccc(F)c4)c3C2=O)CC1 | 2% | -0.29
9 | CC1(Cc2nc(N)nc(NCCc3ccccc3)n2)Oc2ccccc2O1 | 0% | -0.01
10 | COCC(=O)N1CCN(Cc2nc3ccccc3n(C)c2=O)CC1 | -5% | 0.6
11 | CCN(CC)C(=O)C[C@@H]1CCN2C[C@@H]1/C=C\COc1ccccc1CN(Cc1ccccn1)CC2=O | -4% | 0.46
12 | CCc1cc(N2CCn3nc([C@H](O)c4nccn4C)cc3C2)nc(N(C)C)n1 | 3% | -0.46
13 | Cc1nn(C)c(N)c1C(=O)NC(C)(C)Cc1ccc(Cl)cc1Cl | -2% | 0.34
14 | CCC(CC)[C@H]1CCN(CCC2OCCO2)C1 | 8% | -1.52
15 | Cc1cccc(N2CCN(C(=O)C[C@H]3CCCCN(C)C3=O)CC2)c1C | -13% | 2.49
16 | O=C(CN1CCN(c2ccc(F)cc2)C1=O)NCCCN1CCCC1=O | 2% | -0.28
17 | CCc1nnsc1C(=O)OCc1ccc(C(N)=O)cc1 | -15% | 1.96
18 | Cc1[nH]nc(CCC(=O)N2C[C@@H]3CC[C@H]2CN(Cc2ccncc2)C3)c1C | -12% | 2.05
19 | CC(N)C1CCCN(C(=O)CCc2ccsc2)C1 (configuration not stated) | -10% | 1.38
20 | Cn1cc(C(NS(=O)(=O)c2ccc(F)c(Cl)c2)[C@H]2C[C@@H](O)C2)cn1 (some centres not stated) | 10% | -1.38
21 | N#Cc1cccc(N[C@H]2CCN(C(=O)c3ccccn3)C[C@@H]2O)n1 | -6% | 1.24
22 | CC(C)(CNC(=N)N)c1ccccc1Cl | -2% | 0.16

Row | Compound | % Inhibition | Z score
23 | CCCN(CCn1cc(Cl)cn1)Cc1ccccn1 | 4% | -0.52
24 | CN(Cc1nccn1C)c1ccc(C(F)(F)F)cn1 | 2% | -0.14
25 | O=S(=O)(c1ccccc1)N(C1CC1)C1CCN(CCc2cn[nH]c2)CC1 | -5% | 0.75
26 | CC(C)c1cncc(NC(=O)C2CCC(C(=O)N(C)C)CC2)c1 (configuration not stated) | -6% | 1.08
27 | CC(C)N1CC(=O)N(Cc2n[nH]c(C(C)(C)C)n2)C1=O | -27% | 3.15
28 | O=C(C[C@H]1CCOC1)N1CCN(Cc2ccccc2)C(=O)C1 | -1% | 0.23
29 | COc1cc(C)ccc1CN1C[C@@H]2CC[C@H]1CN(Cc1c(C)noc1C)C2 | 2% | -0.3
30 | CN1CCC(NC(C(N)=O)c2ccc(Br)cc2F)C1=O (configuration not stated) | 7% | -0.72
31 | Cc1ccc(-c2cc(C(=O)Nc3ncccn3)c3ccccc3n2)cc1C | -8% | 0.99
32 | COc1ccccc1NC(=O)C1CCCCC1C(=O)NCCc1ccccc1 (configuration not stated) | 35% | -3.99
33 | Cc1nn(-c2nc3ccccc3[nH]2)c(O)c1CCC(C)C | 95% | -12.21
34 | COCC(=O)N(Cc1cccc(C)c1)c1ccc(CC(=O)NC(C)C)cc1 | -2% | 0.32
35 | CCOCC1CCN(c2ncnc3c2Cc2ccccc2OC3)CC1 | -12% | 1.27
36 | Cc1cccc(OC(F)F)c1NC(=O)N1CC[C@H](Oc2cccc(Cl)c2)C1 | -5% | 0.52
37 | CC(C)[C@@H](O)CNCc1cn(C2CCCC2)nc1-c1ccccn1 | -1% | 0.06
38 | COc1cccc(NC(=O)c2cccc(N3CCCN(Cc4ccccc4)C3=O)c2)c1 | 3% | -0.52
39 | Cc1cc(C(=O)Nc2ccc3c(c2)N(C)C(=O)[C@H](C)O3)ccc1N1CCOCC1 | 4% | -0.7
40 | N#CCCn1ncc2c(N3CCN(c4ccccn4)CC3)ncnc21 | -3% | 0.45
41 | O=C(CCn1ccccc1=O)N1CCc2[nH]cnc2C1 | -4% | 0.71
42 | Cc1cccc(NC(=O)Cc2noc(-c3scnc3C)n2)c1C | -13% | 1.99
43 | CC(C)CC(=O)N(C)[C@H]1CCS(=O)(=O)C1 | -37% | 4.31
44 | CN(Cc1cscn1)C(=O)N[C@H]1CCCc2ccccc21 | -1% | 0.24

Row | Compound | % Inhibition | Z score
45 | CC1CN(CCN2CCCCC2c2nccs2)CCO1 (configuration not stated) | -13% | 1.33
46 | CC(C)Cc1n[nH]c(NC(=O)c2ccc(Nc3ncccn3)cc2)n1 | -14% | 1.57
47 | Cn1c(CNC(=O)[C@H]2CCCCC2(C)C)cc(=O)n1-c1ccccc1 | -18% | 2.01
48 | C[C@@H](CNC(=O)c1ccn2cncc2c1)Nc1ccccc1 | 13% | -1.15
49 | CCN1C(=O)Cc2cc(NC(=O)c3cccc4ccccc34)ccc21 | 6% | -0.63
50 | CCC(=O)N(C)[C@@H](Cc1cccc(C(F)(F)F)c1)C1CCN(Cc2ccc(C(=O)OC)cc2)CC1 | -3% | 0.34
51 | O=C(N[C@H]1CCS(=O)(=O)C1)c1cc(-c2ccccc2)on1 | -6% | 0.92
52 | O=C(CCN(Cc1ccccc1)c1nc(-c2cccc(Br)c2)nc2ccccc12)N1CCOCC1 | -1% | 0.27
53 | Cc1noc(C)c1CN(C)Cc1nnc(-c2ccc(Cl)cc2)o1 | 2% | -0.24
54 | CC[C@H](C)Cc1nc(CCn2nc(C)cc2C)n(CCO)n1 | -13% | 1.3
55 | CCC1(C)CCCN(CC2CCCCNC2=O)C1 (configuration not stated) | -5% | 0.91
56 | CC(C)(C)NC(=O)c1ccc(Cl)c(Cl)c1 | -9% | 1.27
57 | Cc1ccc(NC(=O)CN2C[C@@H]3C[C@H](C2)[C@H]2CCCC(=O)N2C3)cc1 | 1% | -0.11
58 | Cc1noc(C)c1CN(C)C(=O)[C@H](C)OCC1CC1 | -5% | 0.59
59 | CCc1n[nH]c(NC(=O)CCc2c(C)noc2C)n1 | 16% | -1.89
60 | COCc1nc(C)cc(N2CCN(c3ccc(N)nc3)CC2)n1 | -12% | 1.79
61 | O=C(Nc1nc2c(s1)CN(C(=O)COc1ccccc1)CC2)c1cccs1 | -3% | 0.63
62 | Cc1cc(CNC(=O)C2CC2c2ccc3c(c2)OCCO3)no1 (configuration not stated) | -8% | 0.91
63 | O=C1c2ccccc2C(=O)N1C1CN(C2CCOCC2)C1 | 3% | -0.32
64 | c1ccc(C2=NO[C@@H](CN3CCC4(CCCC4)C3)C2)cc1 | -4% | 0.67
65 | CN=C(NCCCc1ccccc1)NCCCn1cncn1 | -9% | 0.78
66 | Cc1nn(C)c2nc(N3CCCC[C@@H]3CN3CCCC3)sc12 | -6% | 0.54

Row | Compound | % Inhibition | Z score
67 | CO[C@H]1CN(C(C)C)C[C@@H]1Nc1ccncc1F | -1% | 0.18
68 | CCOC(=O)c1cnn2ccc(NC(=O)c3cccc(C(F)(F)F)c3)cc12 | 1% | -0.15
69 | CCn1nc(C(=O)Nc2cccc3ccccc23)ccc1=O | 6% | -0.83
70 | CC(=O)c1cc(C(=O)NCc2cccnc2N2CCN(C)CC2)[nH]n1 | -4% | 0.41
71 | CC1CC(C(=O)N2CCCC2c2ncccn2)CC(C)(C)C1 (configuration not stated) | -13% | 1.54
72 | O=c1n(Cc2ccccc2)nc2n1CC1CCC(C2)N1S(=O)(=O)c1ccc(F)cc1 (configuration not stated) | -6% | 0.77
73 | COc1cccnc1N(C)C(=O)CCCC1CCOCC1 | -9% | 1.72
74 | Cc1cc(C)n(-c2cncc(N3CCCN(C)CC3)n2)n1 | 4% | -0.74
75 | O=C(CCc1ccsc1)Nc1ccc2c(c1)CCN2 | -1% | 0.17
76 | O=C1C[C@H](c2cccnc2)c2cnn(C3CCCC3)c2N1 | 38% | -1.45
77 | CCNc1cc(CNC(=O)N2CCO[C@@H](Cn3cccn3)C2)ccn1 | -1% | 0.14
78 | O=C(NCc1ccncc1)c1nnc(Cc2cccc(F)c2)o1 | -4% | 0.84
79 | O=S(=O)(CC1CCC1)NCc1ccno1 | -14% | 2.75
80 | O=C(Cn1cnc2ccccc21)Nc1c(F)cccc1F | -4% | 0.36
81 | O=C(O)[C@@H]1CC2(CCN(C(=O)CCCCc3ccccc3)CC2)CN1 | -10% | 1.84
82 | CCn1cc(-c2noc(CNC(=O)c3ccc(S(=O)(=O)N4CCOCC4)cc3)n2)cn1 | -18% | 2.26
83 | Cn1c([C@H]2CCN(Cc3ccccc3)C2)nc2ccccc21 | -10% | 1.55
84 | CC[C@@H](CNS(N)(=O)=O)Oc1cccc(F)c1 | -8% | 0.84
85 | O=C(NCC1CN(C(=O)Nc2ccccc2)C2CCN1C2)c1cccc(OC(F)F)c1 (configuration not stated) | 5% | -0.68
86 | O=C1NCC(C(=O)N[C@@]23CCC[C@@H]2C3)c2ccccc21 (some centres not stated) | 2% | -0.25
